# Laboratory results reported in PubChem BioAssay AID1745845 (National Center for Advancing Translational Sciences (NCATS), 2022).
# Hit rate of the full screen: of about 360,000 compounds, about 2,600 (0.72%) were called active. The shares of active, inactive and inconclusive entries below differ from those in the screen. Calls come from the whole dose curve; as a rule, active = well fitted inhibition curve with a large enough effect; inconclusive = small, poorly fitted or top-dose-only effect; inactive = no such curve, though single readings can be large or run the other way. A potency beside an inconclusive call is a rough fit, not a confirmed value.
# Experiment: Primary qHTS for Inhibitors of ATXN expression; note: nearly all actives have a fitted effect of over 55% in size
# Details: HEK-293 ATXN2-luciferase reporter, luminescence, 24 h; activity change, negative = inhibition: at 57 µM (top of the series)
# How it was run: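 qHTS (up to 57 uM final) was run with 24 h compound exposure of reporter cells at 37 °C. Each well was multiplexed: SteadyGlo luminescence measured ATXN2-luciferase expression after a fluorogenic Gly-Phe-AFC viability readout (25 uM final).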
# % is set by controls: 0 for no effect and ±100 for the full control effect; potency is the fitted concentration of half-maximal effect; tags give direction and shape of the fitted curve.
Compound,Potency,"activity change, negative = inhibition"
CCCCN1C(=O)C(CC(=O)NCCCCc2ccccc2)CC(C(=O)N2CCCCCC2)=C1C (centres undefined),"inconclusive: 25.1 µM [inhibitor, partial curve, poor fit]",
COc1cc2c(cc1Cc1cccc(Cl)c1F)c(=O)c(C(=O)O)cn2[C@H](CO)C(C)C,"inconclusive: 24.3 µM [inhibitor, single point]",
COc1ccc2cc3[n+](cc2c1OC)CCc1cc2c(cc1-3)OCO2,"inconclusive: 24.3 µM [inhibitor, single point]",
COc1cc(C(=O)Nc2ccc(-c3nc4cc(C)ccc4o3)c(O)c2)cc(OC)c1OC,"inconclusive: 14.1 µM [inhibitor, partial curve]",
OCCN1CCN(C2Cc3cc(Cl)ccc3Sc3ccc(Cl)cc32)CC1 (centres undefined) (tested in a mixture with another compound),"inconclusive: 31.6 µM [inhibitor, single point]",
CCN1CCCC1CN(Cc1cc2c(C)cc(C)cc2[nH]c1=O)C(=O)NC1CCCCC1 (centres undefined),,inactive: 5.97%
Cc1ccc(NC(=O)CSc2nc3ccccc3c(=O)n2CCCN2CCCCC2)cc1Cl,"inconclusive: 23.8 µM [inhibitor, partial curve, poor fit]",
Cc1ccc(C)c(N2CCN(S(=O)(=O)c3c(C)noc3/C=C/N(C)C)CC2)c1,"inconclusive: 35.5 µM [inhibitor, single point]",
COc1ccc(-c2cc(-c3ccccc3)c(C#N)c(S(C)=O)n2)cc1 (centres undefined),active: 28.2 µM,
Nc1ncnc2c1ncn2[C@H]1CC[C@@H](CO)O1,,inactive: 3.34%
CC1=CC(C)(C)N=C(Nc2ccc(C)cc2)S1,,inactive: 30.5%
CC(C)c1ccc(NC(=O)Nc2nc(C(C)N)cs2)cc1 (centres undefined),"inconclusive: 28.2 µM [inhibitor, single point]",
CCCC(=O)Nc1ccc(NC(=O)c2ccccc2)nc1,"inconclusive: 17.8 µM [inhibitor, single point]",
COc1ccc(-n2nc(C(=O)NCC(=O)NCc3ccc(F)cc3)c3ccccc3c2=O)cc1,,inactive: -7.56%
CN1CCN(C(=O)c2cccc(-c3cnc4cnc(-c5ccccc5Oc5ccccc5)cn34)c2)CC1,,inactive: 0%
CC1(C)c2[nH]c3ccccc3c2C[C@@H]2C(=O)N(Cc3ccc(F)cc3)C(=O)N21,"inconclusive: 31.6 µM [inhibitor, single point]",
Cc1cc(Br)ccc1NC(=O)c1sc2ncnc(N3CCN(c4ccccn4)CC3)c2c1C,,inactive: -27.7%
Cc1nn(-c2ccccc2)c2nc(-c3cccs3)cc(C(=O)NN)c12,"inconclusive: 37.7 µM [inhibitor, single point]",
Cn1ncc2cc(NC(=S)NC(=O)c3ccccc3)ccc21,,inactive: 37.2%
Oc1ccccc1/C=N/Nc1nccnc1Cl,"inconclusive: 7.94 µM [inhibitor, partial curve]",
O=C(C1=C[C@@H](c2ccc(Br)cc2)C[C@@H](OCc2ccc(CO)cc2)O1)N1CCN(Cc2ccc3c(c2)OCO3)CC1,"inconclusive: 22.4 µM [inhibitor, partial curve, poor fit]",
CCN(CC)c1ccc(C(=O)N/N=C/c2ccccc2OC(F)F)cc1,"inconclusive: 39.8 µM [inhibitor, single point]",

Compound,Potency,"activity change, negative = inhibition"
O=C1N(c2ccccc2C(F)(F)F)O[C@]1(c1ccccc1)C1CCCC1,"inconclusive: 28.2 µM [inhibitor, partial curve, poor fit]",
COC(=O)c1ccc(CCc2cc(O)ccc2O)cc1,"inconclusive: 39.8 µM [inhibitor, single point]",
Cc1cccc(-c2noc(C3CCCCC3)n2)c1,,inactive: 41%
COc1ccc(CNC(=O)CC2C[C@H](C(=O)N3CCOCC3)[C@@]3(CCC4CCCC4)c4[nH]c5ccccc5c4CCN3C2=O)cc1OC (some centres undefined),"inconclusive: 39.8 µM [inhibitor, single point]",
CN(C)CCCNC(=O)/C(=C\c1ccc(-c2ccc(Br)cc2)o1)NC(=O)c1ccccc1,"inconclusive: 25.1 µM [inhibitor, single point]",
CCOc1ccc(S(=O)(=O)NCCCn2ccnc2)cc1,,inconclusive: -45.2% [inhibitor]
CCOc1ccsc1C(=O)O,"inconclusive: 1.12 µM [inhibitor, full curve, poor fit]",
CC(=O)c1cccc(NS(=O)(=O)c2ccc3[nH]c4c(c3c2)CCCCC4)c1,"inconclusive: 22.4 µM [inhibitor, partial curve]",
O=C1NC(c2ccccc2)=C(c2nc3ccccc3s2)C(c2ccccc2)N1 (centres undefined),"inconclusive: 39.8 µM [inhibitor, single point]",
CNC[C@@H](Cc1ccccc1)NC[C@@H](CC1CCCCC1)NCCCc1ccccc1,"inconclusive: 2.82 µM [inhibitor, partial curve, poor fit]",
CC(C)c1ccc(CC(=O)N2CCC2(C)C(=O)Nc2cccc(C#N)c2)cc1 (centres undefined),"inconclusive: 17.8 µM [inhibitor, partial curve]",
COc1ccc2nc3cc(Cl)ccc3c(Nc3ccc(O)c(CN4CCN(C)CC4)c3)c2c1,"inconclusive: 39.8 µM [inhibitor, single point]",
O=C(NC1CCCCC1)N1CCCCCC1,,inactive: 1.81%
CCOC(=O)C(C(=O)OCC)[C@@H]1CS(=O)(=O)C[C@H]1C(C(=O)OCC)C(=O)OCC,,inactive: -26.1%
NNC(=O)c1sc2cc(C(F)(F)F)cnc2c1-c1cccs1,"inconclusive: 31.6 µM [inhibitor, single point]",
CC(=O)Nc1nnc(S(=O)(=O)N2CCN(c3ccc(Cl)cc3[N+](=O)[O-])CC2)s1,,inactive: -19.5%
Cc1ccc(S(=O)(=O)N2CCC(=O)N(C(COCc3ccc(Cl)cc3)C(C)C)CC2)cc1 (centres undefined),"inconclusive: 31.6 µM [inhibitor, partial curve, poor fit]",
O=C(Nc1nc2n(n1)C(c1ccc(F)cc1)C=C(c1ccc(Cl)cc1)N2)c1ccc([N+](=O)[O-])cc1 (centres undefined),,inactive: 9.51%
CCCC(=O)N1CCN(c2ccc(NC(=O)c3ccc4c(c3)OCCO4)cc2)CC1,"inconclusive: 21.2 µM [inhibitor, partial curve, poor fit]",
COc1ccc(Cl)cc1NC(=O)CC1S/C(=N/N=C2CCCCCC2)NC1=O (centres undefined),"inconclusive: 7.08 µM [inhibitor, partial curve, poor fit]",
O=C(c1ccc(CS(=O)(=O)c2ccc(Br)cc2)o1)N1CCN(c2ccc(F)cc2)CC1,"inconclusive: 28.2 µM [inhibitor, single point]",
COc1ccc2nc(N3C(=O)/C(=C/c4ccc(Cl)cc4)NC3=S)sc2c1,,inactive: -4.63%

Compound,Potency,"activity change, negative = inhibition"
O=C(NC1CCCCC1)c1ccc(CSc2nc3cccnc3n2Cc2cccc(F)c2)cc1,"inconclusive: 22.4 µM [inhibitor, single point]",
CN(C)CCCN(C(=O)c1ccc(S(=O)(=O)N2CCCC2)cc1)c1nc2ccc(Br)cc2s1,"inconclusive: 17.8 µM [inhibitor, partial curve, poor fit]",
CCCCC(=O)N1CCc2cc(OC)c(OC)cc2C1COc1ccc(C(=O)OCC)cc1 (centres undefined),"inconclusive: 31.6 µM [inhibitor, single point]",
CCOC(=O)C1=C(CC)Nc2ccccc2N=C1NC(=O)Nc1ccc(Cl)c(Cl)c1,"inconclusive: 39.8 µM [inhibitor, single point]",
CCCC/C(C)=N/NC(=O)CN(c1ccc(Br)cc1)S(=O)(=O)c1ccccc1,,inactive: -8.7%
O=c1oc2cc(Oc3c([N+](=O)[O-])cc(C(F)(F)F)cc3[N+](=O)[O-])ccc2c2c1CCCC2,"inconclusive: 35.5 µM [inhibitor, single point]",
Cc1ccc(-n2nnc(-c3nccn3C)n2)cc1,"inconclusive: 10 µM [inhibitor, partial curve, poor fit]",
CCn1c(N2CCN(CC(=O)c3c(C)n(C)c4ccccc34)CC2)nc2c1c(=O)[nH]c(=O)n2C,,inactive: -9.09%
N#C/C(=C\c1c[nH]c2ccccc12)C(=O)Nc1ncc(Cc2ccc(Cl)cc2Cl)s1,,inactive: -23.5%
CNc1cccnc1C=NNC(N)=S,"inconclusive: 1.89 µM [inhibitor, full curve]",
COc1cccc(-c2cnc(C(O)c3ccc(C)cc3C)[nH]2)c1 (centres undefined),,inactive: 4.37%
Nc1nnc(-c2cccc(Cl)c2Cl)c(N)n1,"inconclusive: 0.0054 µM [inhibitor, partial curve, poor fit]",
CCCOc1c(OC)cccc1C1CC(=O)Nc2cc3c(cc21)OCCO3 (centres undefined),,inactive: -19.7%
CCO[C@H]1OC(C(=O)NCc2nc3ccccc3[nH]2)=C[C@@H](c2ccc(C(F)(F)F)cc2)[C@@H]1CCCO,"inconclusive: 28.2 µM [inhibitor, partial curve, poor fit]",
Cc1ccc(Cc2cnc(NC(=O)/C(C#N)=C/c3ccc(-c4ccc([N+](=O)[O-])cc4)o3)s2)cc1,active: 15.8 µM,
Cc1cc(C)c(OCC(=O)N/N=C/c2ccc3c(c2)OCO3)c(C)c1,"inconclusive: 2.67 µM [inhibitor, partial curve, poor fit]",
Cc1cc(Nc2cc(CN3CCOCC3)c3nc(C)c(Cc4ccc(Cl)cc4F)n3n2)n[nH]1,active: 19.3 µM,
CCOC(=O)[C@]12Cc3c(cc(OC)c(OC)c3OC)[C@H]1N(C1CCCCC1)C(=O)c1cc(OC)ccc12,"inconclusive: 31.6 µM [inhibitor, single point]",
NC(Cc1ccc(C(F)(F)F)cc1)c1csc(Nc2cc(Oc3ccccc3)ncn2)n1 (centres undefined),"inconclusive: 39.8 µM [inhibitor, single point]",
NC(=O)c1cnc(-c2ccc(C3(N)CCC3)cc2)c(-c2ccccc2)c1,"inconclusive: 19.3 µM [inhibitor, partial curve]",
